Sequences and labels used below:
B1: tRNA (parent)
chain: CUCUCGGUAGCCAAGUUGGUUUAAGGCGCAAGACUUUAAUUUAUCACUACGAAAUCUUGAGAUCGGGCGUUCGACUCGCCCCCGGGAGAUUUUUUCCUCGAGCAA

Variants at the floor of the assay are shown more often than the library holds them.

Consider 84 variants from the RNAGym collection of RNA variant scans (doi:10.1101/gad.245936.114).

The data set covers variants of B1. Nature of the data set: nonsense suppression (GFP-seq) (ratio to wild type); higher = more function; SUP4oc tRNA, yeast GFP reporter sort-seq. In a few lines: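 Each variant's nonsense suppression (GFPSEQ) is a cell-share-weighted bin median GFP/RFP relative to the unmutated parent tRNA. Yeast with genome-integrated tRNA variants from a ~3% random-mutation library, a galactose-driven GFP ochre reporter and RFP were grown in raffinose/galactose medium with 80 mg/L adenine, then sorted into GFP/RFP bins for Illumina sequencing. Variants needed ≥100 reads and ≥30 cells.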
Take A60G C68A G88C: the nonsense suppression is at most 0.026.

In the case of A13C A31U G61C, the nonsense suppression is at most 0.026. Next, A30U C68G: at most 0.026. The result for U58G G78C reads at most 0.026; that for A9G U21G G32C, at most 0.026. The result for C12A A60G G65A U76G G78C reads at most 0.026; that for G59C A62C, at most 0.026. For the variant A9U A33U G69C U76C C83U, the nonsense suppression is at most 0.026. On to U17A G66A, for which the nonsense suppression was at most 0.026. Next, A33G C34A G73C G85C A89C: at most 0.026; C11G U76A: at most 0.026. Turning to G26A C29G C77G, the nonsense suppression is at most 0.026. Next, C5G U70G: at most 0.026. Next, C1U U20G G69U: at most 0.026; U22A A24C C68U: 0.215; C29A G66C C77U C79G: at most 0.026. Take C3G C56G U63C G69U G84A A87C: the nonsense suppression was at most 0.026.

With C68A G69A, the nonsense suppression was at most 0.026.

Turning to G66C G67C, the nonsense suppression is at most 0.026. For A31G G78U, the nonsense suppression is at most 0.026. The result for A31U C75A reads 0.758; that for G73U G84C, at most 0.026.

Turning to G28U U63C, the nonsense suppression was at most 0.026. Next, C3A U17G A31U C34A: at most 0.026; U58C: at most 0.026; C3U A54G U55C: at most 0.026. The result for U2G C11G C83U G85C reads at most 0.026. Next, C12G A23C U63C: at most 0.026. C11G A24U C68U: the nonsense suppression was at most 0.026. The result for G28A C34G reads at most 0.026; that for A14G U57C U71G, at most 0.026.

Turning to C3A A23C G78A, the nonsense suppression was at most 0.026.

Turning to U2G A24C G61C, the nonsense suppression is at most 0.026. Turning to A30G A33G, the nonsense suppression came to 0.046. G26C G85C: the nonsense suppression was at most 0.026.

A9G C34A G59C: the nonsense suppression is at most 0.026. The result for G65U C72G reads at most 0.026; that for A23G U76A C77A, at most 0.026; that for A23C G32A A74G, at most 0.026. The result for G7A C11U U35A A54C C64U C83G reads at most 0.026; that for C3A A62C U63A U76G, at most 0.026; that for U17A U57C G73C, at most 0.026. Next, C27U A62G: at most 0.026; A24U G28C A87C: at most 0.026.

For the variant A13U G28U, the nonsense suppression is at most 0.026.

In the case of G6U A14C C68G C81G, the nonsense suppression is at most 0.026.

Consider G19A A31G, for which the nonsense suppression was determined as 0.0307. In the case of G25A G28U U57A C68U C75U, the nonsense suppression is at most 0.026. Next, G7A C11A U55A A74G: at most 0.026.

As to A13U U35C G61A A62C, the nonsense suppression was at most 0.026. Regarding C1U C5G G28A U35A C80U, the nonsense suppression was at most 0.026. Consider C5G G28U, for which the nonsense suppression was at most 0.026.

As to G7U U16C, the nonsense suppression was at most 0.026.

For the variant A60G C72G U76A, the nonsense suppression was at most 0.026. The result for U63G C83G reads at most 0.026; that for A31U G65C C72G U76G, at most 0.026; that for U17G G26C, at most 0.026. The result for U63G G66A reads at most 0.026; that for C3G A24C A89C, at most 0.026; that for G10U U21A U76A, at most 0.026. Consider C5U A14U, for which the nonsense suppression is at most 0.026.

With C12U A60U, the nonsense suppression was determined as 0.723. The result for U35C G88A reads at most 0.026.

For A54G A62C G67U C77A, the nonsense suppression was at most 0.026.

For U4C C27A, the nonsense suppression was at most 0.026.

Turning to U2A G6C A23C U76C, the nonsense suppression was at most 0.026. The result for G10U U20A reads at most 0.026; that for A30U U63A, 0.157. The result for A33C reads at most 0.026; that for G10U U35G G61A, at most 0.026.

Consider A13C U70C G73C, for which the nonsense suppression is at most 0.026. Next, U20G C56A: at most 0.026; C11U U55G G67C: at most 0.026; A23G U57G: at most 0.026. The result for C11U G61A A62C U70C A74G reads at most 0.026. Next, C5A A13C A30C A33G: at most 0.026; C11A G65A A74U: at most 0.026. For C1A U17A, the nonsense suppression was at most 0.026. The result for U4A G59U U70G C82G reads at most 0.026; that for C1U C83U A89C, at most 0.026.

As to A9U U63G G73A, the nonsense suppression was at most 0.026. Next, C27U A31G: at most 0.026. Regarding G25U U57C C64U, the nonsense suppression was at most 0.026.

In the case of G7A U21A U76A, the nonsense suppression was at most 0.026.
